Laboratory results published in PubChem BioAssay AID1645887 (National Center for Advancing Translational Sciences (NCATS), 2021).
Where “and” joins values, the source holds several entries; their conditions need not be identical. Identical values can stand only once. The campaign covered roughly 16,000 compounds. About 40 (0.2%) were called active. About 1% were inconclusive and are not listed. The call rests on the fitted dose curve; in most records, active means well fitted activation curve with a large enough effect; inconclusive means small, poorly fitted or top-dose-only effect, or another doubt; inactive means no such curve, though single readings can be large or run the other way. Some of the results follow. Residues, ends and D or L forms follow the SMILES beside them. *: point of attachment. Cbz = O=C(OCc1ccccc1)*; CH2F = FC*

Target: Rap guanine nucleotide exchange factor 4 (Homo sapiens) (UniProt Q8WZA2)
UniProt Q8WZA2, sequence (Q8WZA2 whole entry, looked up): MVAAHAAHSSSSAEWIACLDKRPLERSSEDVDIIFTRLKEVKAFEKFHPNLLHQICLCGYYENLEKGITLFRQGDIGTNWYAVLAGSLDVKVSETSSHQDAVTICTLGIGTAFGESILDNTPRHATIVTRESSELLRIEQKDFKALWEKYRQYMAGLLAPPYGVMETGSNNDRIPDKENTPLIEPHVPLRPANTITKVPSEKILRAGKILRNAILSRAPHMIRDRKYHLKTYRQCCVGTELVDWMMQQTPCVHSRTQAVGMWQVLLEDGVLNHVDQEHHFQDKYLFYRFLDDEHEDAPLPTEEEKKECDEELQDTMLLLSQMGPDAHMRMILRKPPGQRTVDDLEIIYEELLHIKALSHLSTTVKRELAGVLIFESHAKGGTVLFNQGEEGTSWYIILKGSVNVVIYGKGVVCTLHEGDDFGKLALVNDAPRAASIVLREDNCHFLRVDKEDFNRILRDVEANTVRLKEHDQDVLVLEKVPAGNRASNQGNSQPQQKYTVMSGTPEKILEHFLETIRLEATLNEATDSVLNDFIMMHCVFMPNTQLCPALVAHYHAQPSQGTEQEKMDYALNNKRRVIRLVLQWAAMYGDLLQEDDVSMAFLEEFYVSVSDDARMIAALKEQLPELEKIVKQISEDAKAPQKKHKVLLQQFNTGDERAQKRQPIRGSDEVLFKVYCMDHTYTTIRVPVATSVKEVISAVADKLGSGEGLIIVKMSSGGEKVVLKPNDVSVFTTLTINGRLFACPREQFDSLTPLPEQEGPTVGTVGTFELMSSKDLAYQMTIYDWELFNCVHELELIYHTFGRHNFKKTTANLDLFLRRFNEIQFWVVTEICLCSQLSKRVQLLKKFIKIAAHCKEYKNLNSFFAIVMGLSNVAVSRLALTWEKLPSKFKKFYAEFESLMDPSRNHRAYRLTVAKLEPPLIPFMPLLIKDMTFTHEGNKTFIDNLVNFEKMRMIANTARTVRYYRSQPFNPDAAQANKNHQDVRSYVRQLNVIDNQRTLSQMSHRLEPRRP
Assay: Validation qHTS for agonist of cAMP-regulated guanine nucleotide exchange factor 4 (EPAC2);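 further: exchange makes BODIPY-GDP fluorescence drop when released from Rap1B; series mostly up to about 150 µM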
Conditions: EPAC2 Rap1B BODIPY-GDP exchange, fluorescence; activation: hits give high values
Method in brief: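 Signal normalized against 6.5 mM cAMP as agonist control. Mix of EPAC2 (100 nM), RAP1B-BODIPY-GDP (250 nM) and GDP (50 uM) was read kinetically at 480/540 nm, every 5 min over 30 min, after 5 min room-temperature incubation with compound.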
On the % scale 0 is the no-effect control and ±100 the full control effect.

activation, inactive:
N[C@@H](CCC(=O)N[C@H](CSN=O)C(=O)NCC(=O)O)C(=O)O -20.5%
C[C@@H]1C[C@H]2[C@@H]3CCC4=CC(=O)C=C[C@]4(C)[C@@]3(F)[C@@H](O)C[C@]2(C)[C@@]1(O)C(=O)COC(=O)c1cccc(S(=O)(=O)O)c1 -0.79%
CC1C(=O)OC2C(O)C34C5CC(C(C)(C)C)C36C(OC(=O)C6O)OC4(C(=O)O5)C12O (configuration not stated) -6.95%
C[N+](C)(C)CCCCCC[N+](C)(C)C -5.69% [middle of 4 runs]
CC[N+](C)(C)Cc1ccccc1Br 6.25%
CCCCCCCCc1ccc(-c2ccc(C(=O)O)cc2)cc1 -26%
COc1ccc(C(=O)NCC2Cc3cc(F)cc(-c4cncnc4)c3O2)cc1 (configuration not stated) -9.67%
Cc1noc(C)c1-c1nc(N(C)C)c2ccccc2n1 -15.6%
OCc1ccccc1O[C@H]1OC(CO)C(O)C(O)C1O (some centres not stated) -3.38%
Cc1cc(C)c(C(=O)NCc2nc(-c3cccc(NC(=O)C4CCCN(C)C4)c3)oc2C)[nH]1 (configuration not stated) -4.75%
CC(C)c1nc(C(=O)N2CCOc3ccc(CN4CCN(c5ccccn5)CC4)cc3C2)cs1 -14.9%
CCOC(=O)C[C@H]1c2ccc(C(F)(F)F)cc2S(=O)(=O)N1Cc1ccccc1 -13.1%
COc1ccccc1CNc1cc(-c2c(C)noc2C)ncn1 0.851%
O=c1ccc2ccc(O)cc2o1 6.84%
COc1cccc(Cn2c(=O)c(-c3cccs3)nc3cnc(N4CCNCC4)nc32)c1 9.89%
N#Cc1cccc(NC(=O)N2CCC3(CC2)CCN(C(=O)c2cccc(F)c2)CC3)c1 -11.6%
COc1ccc([C@@H]2CC(=O)c3c(O)cc(O[C@@H]4O[C@H](CO[C@@H]5O[C@@H](C)[C@H](O)[C@@H](O)[C@H]5O)[C@@H](O)[C@H](O)[C@H]4O)cc3O2)cc1O -25.8%
O=c1c(-c2ccccc2)nc2cnc(Nc3ccccc3)nc2n1Cc1cccs1 -3.83%
N#CCCn1c(=O)cnc2cnc(Nc3ccccc3)nc21 -27.3%
Cc1nc(C(=O)N(Cc2cc3ccc(F)cc3nc2N2CCC(O)CC2)CC2CCCO2)cs1 (configuration not stated) -5.39%
CNc1ccc(/C=C/c2ccccc2)cc1 -9.94%
COc1c2ccoc2c(OC)c2oc(=O)ccc12 -27.4%
COc1cc(S(C)=O)ccc1-c1nc2ncccc2[nH]1 (configuration not stated) -22.9%
CCC1Nc2cc(Cl)c(S(N)(=O)=O)cc2S(=O)(=O)N1 (configuration not stated) -18.9%
O=C(NCCO)c1cn(C2CCN(Cc3c(F)cccc3Cl)CC2)nn1 -16.3%
CN1CCN(c2nc(-c3cccnc3)nc3ccccc23)CC1 -3.67%
Cn1cccc1C(=O)N1CCC2(CC1)CN(C(c1ccccc1)c1ccccc1)C2 15.1%
CC(N)=NCCCC[C@H](N)C(=O)O -8.52%
C/C(=C\COc1cc(=O)[nH]c2ccccc12)CCC(O)C(C)(C)O (configuration not stated) 6.22% and -2.51%
CCN(Cc1ccncc1)Cc1ccc2c(c1)CN(C(=O)c1ccc(C)cc1)CCO2 0.871%
O=c1c(-c2cccc(F)c2)nc2cncnc2n1C1CC1 0.67%
COc1cc2c(cc1O)CCC1C2CC[C@@]2(C)C1CC[C@@H]2O (some centres not stated) -11.6%
O=C(O)c1cc(N=Nc2ccc(O)c(C(=O)O)c2)ccc1O -3.97%
COc1cc(-c2noc(C)c2-c2ccc3[nH]ccc3c2)cc(OC)c1OC -26.3%
COc1ccc2c(c1OC)C(Cc1ccccc1)N1CCc3cc4c(cc3C1C2)OCO4 (configuration not stated) 13.1%
COc1cc2cc(Oc3ccc4ccc(=O)oc4c3)c(=O)oc2cc1O 29.1%
CC(C)(C(=O)O)c1ccc(C(O)CCCN2CCC(C(O)(c3ccccc3)c3ccccc3)CC2)cc1 (configuration not stated) 0.799% and -3.95% and -4.53%
CN(C)c1ncc2nc(-c3ccccc3)c(=O)n(C3CC3)c2n1 5.49%
CN1CCN(c2ncnc3ccc(-c4ccoc4)cc23)CC1 -14.3%
COc1ccc(-n2c(=O)c(C)nc3cnc(Oc4ccccc4)nc32)cc1 -3.08%
NS(=O)(=O)c1cc(C(=O)O)cc(N2CCCC2)c1Oc1ccccc1 -16.4%
Cc1oc(-c2ccccc2NC(=O)c2ccsc2)nc1CN(C)CC1CC=CCC1 (configuration not stated) -9.38%
CN(C)CCCN1c2ccccc2Sc2ccccc21 8.87% and -16.3% and -0.866%
CCCCS(=N)(=O)CC[C@H](N)C(=O)O (some centres not stated) -20.9%
NC(Cc1ccc(Cl)cc1)C(=O)O (configuration not stated) 9.73% and -14.7%
COc1ccc(CNC(=O)[C@@H]2CC=C[C@@H]3CCN(Cc4ccc(Cl)c(Cl)c4)C(=O)[C@@H]32)cc1 -20.5%
CS(=O)(=O)Nc1cccc(-c2nc(Nc3ccncc3)c3ccccc3n2)c1 9.07%
c1cncc(CNc2nc(-c3ccoc3)nc3ccccc23)c1 -14.6%
O=C(OCCO)c1ccccc1O 0.748%
CN(C)C(=O)c1ccc(-c2nc(-n3ccnc3)c3ccccc3n2)cc1 3.41%
Cn1cc(-c2nc3cnc(N4CCNCC4)nc3n(-c3ccccc3)c2=O)c2ccccc21 0.0217%
CN1CCN(c2ncc3nc(-c4ccc(Cl)cc4)c(=O)n(-c4ccccc4)c3n2)CC1 -8.91%
COc1ccc2c(=O)ccoc2c1 -2.89%
Cc1nnc(SCC2=C(C(=O)O)N3C(=O)C(NC(=O)Cn4cnnn4)[C@@H]3SC2)s1 (some centres not stated) 3.96%
Cc1nc2cnc(N3CCNCC3)nc2n(C2CC2)c1=O -14.5%
O=C(O)COc1ccc(OCCNC[C@H](O)COc2ccccc2)cc1 -10.8%
C=CC(C1=CC(=O)C=CC1=O)c1ccccc1 (configuration not stated) 4.15%
CN1CCC(=O)N([C@H](CSc2ccccc2)c2ccccc2)CC1 -20.8%
O=C/C=C/c1ccc(O)cc1 0.51%
Cc1cnc(CNc2ncncc2-c2ccoc2)cn1 8.26%
CC(=O)Nc1ccccc1 -10% and 6.06%
COc1ccccc1-c1nccc(N2CCN(C)CC2)n1 -7.07%
CCOC(=O)C[C@H]1c2ccc(C(F)(F)F)cc2S(=O)(=O)N1C(C)C -28.9%
CCCN1C[C@H](CSC)C[C@@H]2c3cccc4[nH]cc(c34)C[C@H]21 0.155% and 15% and -1.55%
CO[C@H]1[C@H](NC(=O)C(C)C)c2ccccc2C12CCN(Cc1cnc(N(C)C)s1)CC2 3.02%
CCCCCCCCCCCCCCCCN -3.45%
COC(=O)C[C@H](NC(=O)[C@H](C)NC(=O)[C@@H](NC(=O)OCc1ccccc1)C(C)C)C(=O)CF (Cbz-Val-Ala-Asp(OMe)-CH2F) -9.25%
C=C[C@](C)(O)CCC1C(=C)CC(O)C2C(C)(C)CCCC12C (some centres not stated) -14.7%
O=C1CCC(O)CCN1CCSc1ccccc1 (configuration not stated) -19.1%
CC(C)(C)C(=O)Oc1ccc(S(=O)(=O)Nc2ccccc2C(=O)NCC(=O)O)cc1 -6.15%
CC(C)Cc1nc2cc(NS(=O)(=O)N(C)C)cc(C(=O)N3CC4(C)CC3CC(C)(C)C4)c2n1C (configuration not stated) -8.33%
CSc1ccc2c(c1)C(N1CCN(C)CC1)Cc1ccccc1S2 (configuration not stated) 2.16% and 3.02% and -16.7%
C[C@H]1COc2c(C3(N)CC3)c(F)cc3c(=O)c(C(=O)O)cn1c23 2.26%
CC(C(=O)O)c1ccc2c(c1)Cc1cccnc1O2 (configuration not stated) -18.8%
COc1ccccc1-c1ccnc(-n2ncc(C(=O)NCC3(N4CCOCC4)CCCC3)c2C)n1 -4.2%
O=c1cnc2cnc(N3CCNCC3)nc2n1Cc1cccs1 -7.52%
COCCn1c(=O)c(-c2cccc(C#N)c2)nc2cnc(Oc3ccccc3)nc21 8.13%
CCCCNC(=O)c1sc2ncnc(NCC3CCCO3)c2c1C (configuration not stated) -4.18%
COCCn1c(=O)c(-c2cc(F)cc(F)c2)nc2cnc(OC)nc21 -8.57%
C=CC[n+]1cccc2cc(Br)ccc21 -18.5%
COc1ccc(Oc2ncc3nc(-c4cc(F)cc(F)c4)c(=O)n(C[C@H]4CCCO4)c3n2)cc1 -4.06%
COc1ccccc1N1CCN(CCn2c(=O)c3c(c4ccccc4n3C)n(C)c2=O)CC1 -10.5% and -2.11%
COc1ccc2c(c1)OC1(O)COc3cc(OC)c(OC)cc3C1=C2 (configuration not stated) -13.9%
Cn1cnnc1Sc1ccc(CN2CCOc3ccc(C4=Cc5ccccc5CC4)cc3C2)o1 5.51%
C[C@H]1CCC(=O)N(CCSc2ccc(Br)cc2)CC1 -27.3%
COc1ccc(-c2cc(=O)c3c(O)cc(O)c(-c4cc(-c5cc(=O)c6c(O)cc(O)cc6o5)ccc4OC)c3o2)cc1 -9.24%
CCCCC(CC)COC(=O)c1ccccc1C(=O)O (configuration not stated) -20.7%
